Experimental data as given in PubChem BioAssay AID894 (National Center for Advancing Translational Sciences (NCATS), 2007).
The campaign covered roughly 150,000 compounds. About 6,500 (4.3%) were called active. The inconclusive results got no clear call from the source; some entries with a clear call stand among them for comparison. Calls come from the whole dose curve; as a rule, active = well fitted inhibition curve with a large enough effect (not every such curve was filed as active); inconclusive = small, poorly fitted or top-dose-only effect, or another doubt; inactive = no such curve, though single readings can be large or run the other way. Potencies of inconclusive entries are left out as doubtful fits.
% is set by controls: 0 for no effect and ±100 for the full control effect; potency is the fitted concentration of half-maximal effect; tags give direction and shape of the fitted curve.

Each molecule was assayed against 15-hydroxyprostaglandin dehydrogenase [NAD(+)] (Homo sapiens) (UniProt P15428) (assay: qHTS Assay for Inhibitors of HPGD (15-Hydroxyprostaglandin Dehydrogenase)). Conditions: purified HPGD, NADH fluorescence kinetic, PGE2 substrate; activity change, negative = inhibition: hits give low values.
Sequence of UniProt P15428 (P15428 whole entry, looked up): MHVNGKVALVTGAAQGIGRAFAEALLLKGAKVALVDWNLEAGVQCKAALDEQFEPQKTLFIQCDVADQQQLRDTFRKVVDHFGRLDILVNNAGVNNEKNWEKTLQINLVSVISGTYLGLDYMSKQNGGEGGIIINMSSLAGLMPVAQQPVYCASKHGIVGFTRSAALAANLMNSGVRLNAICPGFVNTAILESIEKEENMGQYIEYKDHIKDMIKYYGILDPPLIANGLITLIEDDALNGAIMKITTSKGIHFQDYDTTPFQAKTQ
In short: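 NADH formation kinetics: reaction with 30 uM PGE2 and 1 mM NAD+ (final), 20 nM enzyme, Tris-HCl pH 8 with Tween 20, after 15 min compound preincubation at room temperature. Fluorescence change, last versus first of five reads.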
In the case of COc1cc(-c2cc(-c3ccccc3)nc(SCC(=O)Nc3nccs3)c2C#N)cc(OC)c1OC, the Potency is reported as inconclusive [inhibitor, partial curve]. For Clc1cccc(Nc2ncnc3c2cnn3-c2ccccc2)c1, the Potency was inconclusive [inhibitor, partial curve]. CCN(CC)C(=O)c1sc(NC(=O)c2ccncc2)c(C(=O)OC)c1C was tested, and the Potency was active: 22.4 µM. For COC(=O)c1[nH]c2cccc(OC)c2c1NC(=O)CCN1CCN(c2ccccc2OC)CC1, the Potency was inconclusive [inhibitor, single point]. For O=C(COc1ccccc1)N1CCN(c2ncnc3c2cnn3-c2ccccc2)CC1, the activity change, negative = inhibition was inactive: -12.5%. In the case of CC(Oc1ccc(Cl)cc1Cl)c1nc(-c2ccc(NC(=O)c3ccco3)cc2)no1 (stereo unspecified), the Potency is reported as inconclusive [inhibitor, full curve, poor fit]. In the case of CC(C)(C)c1ccc(C(=O)Nc2cnccn2)cc1, the activity change, negative = inhibition is reported as inactive: -5.75%. CCOC(=O)CCc1c(C)c2ccc(OCc3nn[nH]n3)cc2oc1=O was tested, and the Potency was inconclusive [inhibitor, partial curve]. With O=C(c1ccco1)N1CCN(C(=O)c2cc(-c3ccccn3)nc3ccc(Cl)cc23)CC1 the Potency was inconclusive [inhibitor, partial curve]. CC1CCN(C(=O)CSc2nncn2-c2ccccn2)CC1 was tested, and the Potency was inconclusive [inhibitor, single point]. In the case of O=C(NNC(=S)Nc1ccc(Cl)cc1Cl)c1ccncc1, the Potency is reported as inconclusive [inhibitor, single point]. In the case of C[C@H](NC(=O)Cn1cncn1)c1ccccc1, the activity change, negative = inhibition is reported as inactive: -17.6%. For Cc1ccccc1C=Nc1ccccc1C(N)=O, the Potency was inconclusive [inhibitor, partial curve]. In the case of CCOC(=O)c1c(NC(=O)c2ccco2)n(C2CCCCC2)c2nc3ccccc3nc12, the Potency is reported as inconclusive [inhibitor, partial curve]. With N=c1c2c(-c3ccccc3)c(-c3ccccc3)oc2ncn1CCN1CCOCC1 the Potency was inconclusive [inhibitor, partial curve]. For CCOc1ccc(NC(=S)NC(=O)/C=C/c2ccc(OC)c(OC)c2)c([N+](=O)[O-])c1, the Potency was active: 22.4 µM. CCOc1cc2[nH]c(=S)n(CCCCC(=O)NCc3ccco3)c(=O)c2cc1OCC was tested, and the Potency was inconclusive [inhibitor, full curve]. O=C(CSCc1ccccc1Cl)Nc1c[nH]c(=O)[nH]c1=O was tested, and the activity change, negative = inhibition was inactive: -12.2%. With CCC(Oc1ccccc1)C(=O)Nc1ccc(-c2nnc(-c3ccco3)o2)cc1 (stereo unspecified) the Potency was inconclusive [inhibitor, partial curve]. COc1ccc(CNC(=O)COC(=O)c2cc(-c3ccc(Cl)s3)nc3ccccc23)cc1 was tested, and the Potency was inconclusive [inhibitor, partial curve]. In the case of CC1CCCCN1C(=O)c1cnn2c(C(F)(F)F)cc(-c3ccco3)nc12 (stereo unspecified), the Potency is reported as active: 7.08 µM. With COc1ccc(C(=O)NC(=S)N2CCC(C)CC2)cc1 the Potency was active: 22.4 µM. With O=[N+]([O-])c1cc(Cl)cc(C2=NCCN2)c1 the activity change, negative = inhibition was inactive: -11.5%. COc1ccc(NC(=O)C2(c3ccc(NC(=O)c4ccc(OC(C)=O)cc4)cc3)CCCC2)cc1 was tested, and the Potency was inconclusive [inhibitor, partial curve]. With O=C(Nc1ccccc1)Nc1cc([N+](=O)[O-])ccc1F the activity change, negative = inhibition was inactive: -3.42%. With Cc1cc2c(cc(C(=O)OC(C(=O)NCc3ccco3)C(C)C)n2C)o1 (stereo unspecified) the activity change, negative = inhibition was inactive: -27.9%. With COC(=O)c1cc(=O)nc2scc(C)n12 the activity change, negative = inhibition was inactive: -6.86%. With COCC(=O)N1CCc2nc(-c3ccccc3)c3c(c2C1)CO[C@@H](C)C3 the activity change, negative = inhibition was inactive: -10.6%. With CC1(C)CC2C1CCC1(C)OC2(C)CCC1O (stereo unspecified) the activity change, negative = inhibition was inactive: -3.48%. In the case of CCSc1nc(-c2ccc(OC)cc2)ccc1C#N, the Potency is reported as inconclusive [inhibitor, partial curve]. Cn1ncc(Br)c1C(=O)OCC(=O)Nc1nc(-c2ccccc2)cs1 was tested, and the activity change, negative = inhibition was inactive: -18.1%. For Cc1ccc(/C=C2\CCC3=C2OC(N)=C(C#N)C3c2ccc(C)cc2)cc1 (stereo unspecified), the activity change, negative = inhibition was inactive: -23.7%. Cc1ccc(Nc2nc(C)cc(C)n2)c(Br)c1 was tested, and the activity change, negative = inhibition was inactive: -7.69%. With CCCC1=C/C(=C/c2ccc(-c3ccccc3OC)o2)C(=O)O1 the Potency was inconclusive [inhibitor, partial curve]. For O=C(CCl)Nc1ccccc1Sc1ccccc1, the activity change, negative = inhibition was inactive: -7.79%. O=C1SCCc2c1n(Cc1ccccc1)c1ccccc21 was tested, and the Potency was inconclusive [inhibitor, single point]. With CCn1nnc2sc3c(c2c1=O)CCC(C)C3 (stereo unspecified) the Potency was inconclusive [inhibitor, partial curve]. With CCOC(=O)N1CCN(C(=O)c2ccc3c(=O)n(CCOC)c(=O)[nH]c3c2)CC1 the Potency was inconclusive [inhibitor, partial curve]. In the case of O=C(c1cccs1)[C@@H]1[C@@H]2C(=O)N(Cc3ccc4c(c3)OCO4)C(=O)[C@@H]2C2c3ccccc3C=CN21 (stereo partly specified), the Potency is reported as inconclusive [inhibitor, single point]. For COc1ccc2cc3cc(C(=O)NCCN4CCc5ccccc5C4)oc3nc2c1, the Potency was inconclusive [inhibitor, partial curve]. With O=C(Nc1nsc(-c2ccccc2)n1)c1cccs1 the Potency was inconclusive [inhibitor, partial curve]. NS(=O)(=O)c1cccc2c1c([N+](=O)[O-])cc1[nH]c(=O)c(=O)[nH]c12 was tested, and the Potency was active: 15.8 µM. CC(CNC(=O)c1ccc(C(C)(C)C)cc1)CN(C)C (stereo unspecified) was tested, and the activity change, negative = inhibition was inactive: -19%. In the case of CCCCn1nc2cc(C(=O)NCc3ccco3)ccc2c1OCC, the Potency is reported as inconclusive [inhibitor, partial curve]. In the case of Clc1ccccc1-c1nc(N/N=C/c2cccnc2)c2ccccc2n1, the Potency is reported as active: 14.1 µM. In the case of CCOC(=O)c1cccc(Nc2nc(-c3cccnc3)nc3ccccc23)c1, the Potency is reported as inconclusive [inhibitor, partial curve].
